Experimental data taken from paper PMC10575725.
These are yes or no findings as the source states them, for the method shown. In cells and extracts the contact can be indirect. Some binding calls cover weakened binding; strength is not graded here. For some assays here: Tags and fused reporters may be left off the sequences shown.

The chains behind the UniProt entries cited, without tags or fusion partners.
UniProt Q8R4B8: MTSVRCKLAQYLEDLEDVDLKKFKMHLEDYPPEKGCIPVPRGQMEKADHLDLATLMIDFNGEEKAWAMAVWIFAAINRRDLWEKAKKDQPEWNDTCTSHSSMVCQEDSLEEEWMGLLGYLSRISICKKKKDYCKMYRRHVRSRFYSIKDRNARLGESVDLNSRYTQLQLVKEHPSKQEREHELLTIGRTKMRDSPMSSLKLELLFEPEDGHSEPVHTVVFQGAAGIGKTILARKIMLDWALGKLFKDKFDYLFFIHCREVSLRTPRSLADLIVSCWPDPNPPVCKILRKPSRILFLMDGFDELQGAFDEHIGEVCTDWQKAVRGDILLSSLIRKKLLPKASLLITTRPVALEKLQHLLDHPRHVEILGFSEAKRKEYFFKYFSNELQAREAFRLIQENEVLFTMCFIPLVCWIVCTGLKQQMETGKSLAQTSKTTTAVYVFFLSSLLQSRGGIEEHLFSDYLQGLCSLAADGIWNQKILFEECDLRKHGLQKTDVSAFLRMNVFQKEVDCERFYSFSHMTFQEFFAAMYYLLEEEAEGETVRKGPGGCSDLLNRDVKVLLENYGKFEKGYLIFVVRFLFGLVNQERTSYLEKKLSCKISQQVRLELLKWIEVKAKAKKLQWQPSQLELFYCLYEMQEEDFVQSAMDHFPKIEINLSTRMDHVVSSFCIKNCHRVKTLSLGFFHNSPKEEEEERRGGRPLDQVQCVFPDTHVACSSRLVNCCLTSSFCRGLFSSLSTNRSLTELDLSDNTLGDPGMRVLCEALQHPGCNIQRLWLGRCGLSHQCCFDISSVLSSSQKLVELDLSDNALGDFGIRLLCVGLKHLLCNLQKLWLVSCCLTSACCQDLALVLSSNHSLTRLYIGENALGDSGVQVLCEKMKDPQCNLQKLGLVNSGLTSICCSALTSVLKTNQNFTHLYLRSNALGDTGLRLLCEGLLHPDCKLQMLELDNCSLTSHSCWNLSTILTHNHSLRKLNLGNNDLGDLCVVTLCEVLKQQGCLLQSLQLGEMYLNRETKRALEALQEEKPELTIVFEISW
UniProt Q96P20: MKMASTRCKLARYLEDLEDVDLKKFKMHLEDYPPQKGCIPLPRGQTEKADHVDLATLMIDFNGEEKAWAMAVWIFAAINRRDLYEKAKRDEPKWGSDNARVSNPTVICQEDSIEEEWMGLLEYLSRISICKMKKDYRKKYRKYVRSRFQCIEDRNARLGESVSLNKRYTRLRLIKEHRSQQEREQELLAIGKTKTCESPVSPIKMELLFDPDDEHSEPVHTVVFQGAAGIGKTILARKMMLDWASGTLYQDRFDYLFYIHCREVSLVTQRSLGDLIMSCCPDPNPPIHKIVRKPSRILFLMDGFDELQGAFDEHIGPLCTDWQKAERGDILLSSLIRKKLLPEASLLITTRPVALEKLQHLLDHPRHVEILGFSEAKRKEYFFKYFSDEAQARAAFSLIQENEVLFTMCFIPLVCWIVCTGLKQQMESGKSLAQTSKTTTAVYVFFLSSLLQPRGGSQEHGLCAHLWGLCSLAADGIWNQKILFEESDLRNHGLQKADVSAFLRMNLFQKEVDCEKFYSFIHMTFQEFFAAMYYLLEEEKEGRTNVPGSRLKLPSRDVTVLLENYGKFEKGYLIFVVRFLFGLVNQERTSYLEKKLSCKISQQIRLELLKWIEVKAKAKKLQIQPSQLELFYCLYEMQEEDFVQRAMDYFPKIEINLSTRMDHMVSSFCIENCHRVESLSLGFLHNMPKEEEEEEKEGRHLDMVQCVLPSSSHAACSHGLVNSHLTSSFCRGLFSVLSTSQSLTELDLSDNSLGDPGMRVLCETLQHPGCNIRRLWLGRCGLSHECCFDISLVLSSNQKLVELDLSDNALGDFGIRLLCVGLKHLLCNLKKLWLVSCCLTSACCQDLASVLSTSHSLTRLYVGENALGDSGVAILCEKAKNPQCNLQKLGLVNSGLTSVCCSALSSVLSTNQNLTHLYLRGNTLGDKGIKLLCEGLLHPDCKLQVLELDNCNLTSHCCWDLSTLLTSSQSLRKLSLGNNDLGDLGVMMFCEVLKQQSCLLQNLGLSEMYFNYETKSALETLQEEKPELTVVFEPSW

Assays:
[1] = biological target: Myc-tagged mouse NLRP3 (mouse) (UniProt Q8R4B8); assay: co-IP; HEK293T cells transfected with the indicated plasmids; IP buffer 1.0% NP-40, 50 mM Tris-HCl pH 7.4, 50 mM EDTA, 150 mM NaCl; protein G agarose with specific antibodies overnight
[2] = biological target: Myc-tagged human NLRP3 (human) (UniProt Q96P20); assay: as above
[3] = biological target: Myc-NLRP3, obtained by in vitro transcription and translation (not stated (human or mouse cDNA cloned)) (UniProt Q96P20); assay: co-IP; in vitro binding assay: in vitro transcribed and translated Myc-NLRP3 and Flag-HERC5 mixed, co-IP with Myc antibody, immunoblot with Flag or Myc antibody
[4] = biological target: NLRP3 (NOD-, LRR-, and pyrin domain-containing protein 3), endogenous, mouse peritoneal macrophages (mouse (endogenous in peritoneal macrophages)) (UniProt Q8R4B8); assay: co-IP; endogenous proteins in mouse peritoneal macrophages, LPS-stimulated or LPS-primed and ATP-activated; IP buffer 1.0% NP-40, 50 mM Tris-HCl pH 7.4, 50 mM EDTA, 150 mM NaCl

B1: Flag-tagged mouse HERC6 (enzyme, UniProt F2Z461 1-1003)
chain: MYFSWAAGSRKPRRLKAGTSGIELLQAASGEHHSLLLFSNHRVYSCGDNSWGQLGQRRDQSTERPEPIQALNDLHVDLVSCGKEHSVAVCHKGKVFAWGAGSEGQLGIGEFKEISFMPTKIKALAGIKIIQVSCGHYHSLALSEDGHVFSWGRNSEGQLGLGKNSRSQAIPQKVKSLEGIPLAQVAAGGTHSFALSLTGTSFGWGSNRSGQLALSGNKVKEQIYKPHSIGALKNLSVIYISCGYEHTAVLTEEGQVFTFGGNSSGQLQPSPRSGQRGPQLIEGIGGRVSQIECASYHTIAYVYTTGQVVSLGRGPSHTSNPTHQEAPAENSDITCLLAAEDLVDIEVKDIFAGAHANFVTTRRVSHTRSTGVSMKILPEIIRINQSLVKKWRAANKRKDREGAKREISLIFSSSACLTASFLKKRDAGENNLIDVDLKLARDVFKKLTTEKWISSLITTCLEEYLLRDLPYSSPHQEALLVFLLLPECSIMQDPKNWKTLAFEFAKAIHKMGPQSLAFLRTCWASLEVSSLNILVQMLKKAIISQIQYGVATEQYITNIKVLLEVIKEVHKANCQLPESAFIINELSGIFNFDAEAGRMFIRHNDLDCTESSDMVVFSDFLFVFDLPSKIKLMKCDSFVKLMSEVMAFPEKMSSPPYLILKVRRSHLVEDTLRQLRQVEDFDLRKQLSVGFINEIRPEAGGVSSEFFHCIFEEMTDPKYEMFIYPEKGSSMWFPVNPKFEKSSYFLFGILCGLSLHNLKVINLPFPLALYKKLLNQKPSLEDLKELSLPLGRNLQEVLNCEAGDIEELHMYFSIYWDQKDVDLIPDGISVPVNETNKRDYVSKYVDYIFNISIKTIYEEFHRGFYKVCNWDIIRQFQPEELMTAIIGNATCDWKQFENNSKYKDGYDKSHPTILLFWKAFHDLTLDEKKKFLLFLTGCDRLHVKGLQNEGIVFRCSETFSEEDNPRSLTCHRMLDLPKYSSMRRMKEALQVAINNSTGFVSQE
[1]
  binding: binds

B2: FLAG-tagged human HERC5 (enzyme, UniProt Q9UII4 1-1024)
chain: MERRSRRKSRRNGRSTAGKAAATQPAKSPGAQLWLFPSAAGLHRALLRRVEVTRQLCCSPGRLAVLERGGAGVQVHQLLAGSGGARTPKCIKLGKNMKIHSVDQGAEHMLILSSDGKPFEYDNYSMKHLRFESILQEKKIIQITCGDYHSLALSKGGELFAWGQNLHGQLGVGRKFPSTTTPQIVEHLAGVPLAQISAGEAHSMALSMSGNIYSWGKNECGQLGLGHTESKDDPSLIEGLDNQKVEFVACGGSHSALLTQDGLLFTFGAGKHGQLGHNSTQNELRPCLVAELVGYRVTQIACGRWHTLAYVSDLGKVFSFGSGKDGQLGNGGTRDQLMPLPVKVSSSEELKLESHTSEKELIMIAGGNQSILLWIKKENSYVNLKRTIPTLNEGTVKRWIADVETKRWQSTKREIQEIFSSPACLTGSFLRKRRTTEMMPVYLDLNKARNIFKELTQKDWITNMITTCLKDNLLKRLPFHSPPQEALEIFFLLPECPMMHISNNWESLVVPFAKVVCKMSDQSSLVLEEYWATLQESTFSKLVQMFKTAVICQLDYWDESAEENGNVQALLEMLKKLHRVNQVKCQLPESIFQVDELLHRLNFFVEVCRRYLWKMTVDASENVQCCVIFSHFPFIFNNLSKIKLLHTDTLLKIESKKHKAYLRSAAIEEERESEFALRPTFDLTVRRNHLIEDVLNQLSQFENEDLRKELWVSFSGEIGYDLGGVKKEFFYCLFAEMIQPEYGMFMYPEGASCMWFPVKPKFEKKRYFFFGVLCGLSLFNCNVANLPFPLALFKKLLDQMPSLEDLKELSPDLGKNLQTLLDDEGDNFEEVFYIHFNVHWDRNDTNLIPNGSSITVNQTNKRDYVSKYINYIFNDSVKAVYEEFRRGFYKMCDEDIIKLFHPEELKDVIVGNTDYDWKTFEKNARYEPGYNSSHPTIVMFWKAFHKLTLEEKKKFLVFLTGTDRLQMKDLNNMKITFCCPESWNERDPIRALTCFSVLFLPKYSTMETVEEALQEAINNNRGFG
[2]
  binding: binds

B3: Flag-HERC5, obtained by in vitro transcription and translation (enzyme, UniProt Q9UII4 1-1024)
chain: MERRSRRKSRRNGRSTAGKAAATQPAKSPGAQLWLFPSAAGLHRALLRRVEVTRQLCCSPGRLAVLERGGAGVQVHQLLAGSGGARTPKCIKLGKNMKIHSVDQGAEHMLILSSDGKPFEYDNYSMKHLRFESILQEKKIIQITCGDYHSLALSKGGELFAWGQNLHGQLGVGRKFPSTTTPQIVEHLAGVPLAQISAGEAHSMALSMSGNIYSWGKNECGQLGLGHTESKDDPSLIEGLDNQKVEFVACGGSHSALLTQDGLLFTFGAGKHGQLGHNSTQNELRPCLVAELVGYRVTQIACGRWHTLAYVSDLGKVFSFGSGKDGQLGNGGTRDQLMPLPVKVSSSEELKLESHTSEKELIMIAGGNQSILLWIKKENSYVNLKRTIPTLNEGTVKRWIADVETKRWQSTKREIQEIFSSPACLTGSFLRKRRTTEMMPVYLDLNKARNIFKELTQKDWITNMITTCLKDNLLKRLPFHSPPQEALEIFFLLPECPMMHISNNWESLVVPFAKVVCKMSDQSSLVLEEYWATLQESTFSKLVQMFKTAVICQLDYWDESAEENGNVQALLEMLKKLHRVNQVKCQLPESIFQVDELLHRLNFFVEVCRRYLWKMTVDASENVQCCVIFSHFPFIFNNLSKIKLLHTDTLLKIESKKHKAYLRSAAIEEERESEFALRPTFDLTVRRNHLIEDVLNQLSQFENEDLRKELWVSFSGEIGYDLGGVKKEFFYCLFAEMIQPEYGMFMYPEGASCMWFPVKPKFEKKRYFFFGVLCGLSLFNCNVANLPFPLALFKKLLDQMPSLEDLKELSPDLGKNLQTLLDDEGDNFEEVFYIHFNVHWDRNDTNLIPNGSSITVNQTNKRDYVSKYINYIFNDSVKAVYEEFRRGFYKMCDEDIIKLFHPEELKDVIVGNTDYDWKTFEKNARYEPGYNSSHPTIVMFWKAFHKLTLEEKKKFLVFLTGTDRLQMKDLNNMKITFCCPESWNERDPIRALTCFSVLFLPKYSTMETVEEALQEAINNNRGFG
[3]
  binding: binds

B4: HERC6 (HECT domain- and RCC1-like domain-containing protein 6), endogenous, mouse peritoneal macrophages (enzyme, UniProt F2Z461 1-1003)
chain: MYFSWAAGSRKPRRLKAGTSGIELLQAASGEHHSLLLFSNHRVYSCGDNSWGQLGQRRDQSTERPEPIQALNDLHVDLVSCGKEHSVAVCHKGKVFAWGAGSEGQLGIGEFKEISFMPTKIKALAGIKIIQVSCGHYHSLALSEDGHVFSWGRNSEGQLGLGKNSRSQAIPQKVKSLEGIPLAQVAAGGTHSFALSLTGTSFGWGSNRSGQLALSGNKVKEQIYKPHSIGALKNLSVIYISCGYEHTAVLTEEGQVFTFGGNSSGQLQPSPRSGQRGPQLIEGIGGRVSQIECASYHTIAYVYTTGQVVSLGRGPSHTSNPTHQEAPAENSDITCLLAAEDLVDIEVKDIFAGAHANFVTTRRVSHTRSTGVSMKILPEIIRINQSLVKKWRAANKRKDREGAKREISLIFSSSACLTASFLKKRDAGENNLIDVDLKLARDVFKKLTTEKWISSLITTCLEEYLLRDLPYSSPHQEALLVFLLLPECSIMQDPKNWKTLAFEFAKAIHKMGPQSLAFLRTCWASLEVSSLNILVQMLKKAIISQIQYGVATEQYITNIKVLLEVIKEVHKANCQLPESAFIINELSGIFNFDAEAGRMFIRHNDLDCTESSDMVVFSDFLFVFDLPSKIKLMKCDSFVKLMSEVMAFPEKMSSPPYLILKVRRSHLVEDTLRQLRQVEDFDLRKQLSVGFINEIRPEAGGVSSEFFHCIFEEMTDPKYEMFIYPEKGSSMWFPVNPKFEKSSYFLFGILCGLSLHNLKVINLPFPLALYKKLLNQKPSLEDLKELSLPLGRNLQEVLNCEAGDIEELHMYFSIYWDQKDVDLIPDGISVPVNETNKRDYVSKYVDYIFNISIKTIYEEFHRGFYKVCNWDIIRQFQPEELMTAIIGNATCDWKQFENNSKYKDGYDKSHPTILLFWKAFHDLTLDEKKKFLLFLTGCDRLHVKGLQNEGIVFRCSETFSEEDNPRSLTCHRMLDLPKYSSMRRMKEALQVAINNSTGFVSQE
[4]
  binding: binds

B5: FLAG-tagged human HERC6 (enzyme, UniProt Q8IVU3 1-1022)
chain: MYFCWGADSRELQRRRTAGSPGAELLQAASGERHSLLLLTNHRVLSCGDNSRGQLGRRGAQRGELPEPIQALETLIVDLVSCGKEHSLAVCHKGRVFAWGAGSEGQLGIGEFKEISFTPKKIMTLNDIKIIQVSCGHYHSLALSKDSQVFSWGKNSHGQLGLGKEFPSQASPQRVRSLEGIPLAQVAAGGAHSFALSLCGTSFGWGSNSAGQLALSGRNVPVQSNKPLSVGALKNLGVVYISCGDAHTAVLTQDGKVFTFGDNRSGQLGYSPTPEKRGPQLVERIDGLVSQIDCGSYHTLAYVHTTGQVVSFGHGPSDTSKPTHPEALTENFDISCLISAEDFVDVQVKHIFAGTYANFVTTHQDTSSTRAPGKTLPEISRISQSMAEKWIAVKRRSTEHEMAKSEIRMIFSSPACLTASFLKKRGTGETTSIDVDLEMARDTFKKLTKKEWISSMITTCLEDDLLRALPCHSPHQEALSVFLLLPECPVMHDSKNWKNLVVPFAKAVCEMSKQSLQVLKKCWAFLQESSLNPLIQMLKAAIISQLLHQTKTEQDHCNVKALLGMMKELHKVNKANCRLPENTFNINELSNLLNFYIDRGRQLFRDNHLIPAETPSPVIFSDFPFIFNSLSKIKLLQADSHIKMQMSEKKAYMLMHETILQKKDEFPPSPRFILRVRRSRLVKDALRQLSQAEATDFCKVLVVEFINEICPESGGVSSEFFHCMFEEMTKPEYGMFMYPEMGSCMWFPAKPKPEKKRYFLFGMLCGLSLFNLNVANLPFPLALYKKLLDQKPSLEDLKELSPRLGKSLQEVLDDAADDIGDALCIRFSIHWDQNDVDLIPNGISIPVDQTNKRDYVSKYIDYIFNVSVKAVYEEFQRGFYRVCEKEILRHFYPEELMTAIIGNTDYDWKQFEQNSKYEQGYQKSHPTIQLFWKAFHKLTLDEKKKFLFFLTGRDRLHARGIQKMEIVFRCPETFSERDHPTSITCHNILSLPKYSTMERMEEALQVAINNNRGFVSPMLTQS
[2]
  binding: no binding
